# Hit rate of the full screen: of about 370,000 compounds, about 150 (0.041%) were called active. The inconclusive results got no clear call from the source; some entries with a clear call stand among them for comparison. Calls follow the shape of the dose curve; as a rule, active = well fitted inhibition curve with a large enough effect; inconclusive = small, poorly fitted or top-dose-only effect; inactive = flat fitted curve, though single readings scatter. No potency is given beside an inconclusive call; the fits are too rough.
# Target: Beta-lactamase (Escherichia coli (strain K12)) (UniProt P00811)
# Chain of UniProt P00811 (P00811 whole entry, looked up): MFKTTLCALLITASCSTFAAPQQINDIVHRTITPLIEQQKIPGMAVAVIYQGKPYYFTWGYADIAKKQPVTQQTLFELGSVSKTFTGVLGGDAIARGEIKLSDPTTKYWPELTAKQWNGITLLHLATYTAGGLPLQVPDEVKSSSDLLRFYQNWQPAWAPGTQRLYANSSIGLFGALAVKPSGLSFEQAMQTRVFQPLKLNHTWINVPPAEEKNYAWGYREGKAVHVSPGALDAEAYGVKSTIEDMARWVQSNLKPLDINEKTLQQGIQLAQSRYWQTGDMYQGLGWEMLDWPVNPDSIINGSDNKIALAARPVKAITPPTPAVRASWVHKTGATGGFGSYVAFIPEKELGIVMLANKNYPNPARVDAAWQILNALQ
# Experiment: qHTS Inhibitors of AmpC Beta-Lactamase (assay with detergent); also: nearly all actives have a fitted effect of over 25% in size;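 as to activity change, negative = inhibition: 0% = no-compound wells and -100% = no-enzyme wells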
# Conditions: AmpC hydrolysis of nitrocefin, absorbance 480 nm, 0.01% Triton; activity change, negative = inhibition: at 114 µM (top of the series)
# Outline: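 AmpC (5.3 nM in the dispensed reagent) in 20 mM phosphate pH 7.0 with 0.01% (detergent screen) or 0.0001% Triton X-100 was preincubated with compounds for 15 min at room temperature. Nitrocefin was then added from an 800 uM solution, and hydrolysis was followed at 480 nm.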
# Potency is read from the fitted curve at half-maximal effect; tags tell the direction and shape of the fitted curve.
Structure (SMILES),Potency,"activity change, negative = inhibition"
C/C(=N\NC(=O)C1CC1)c1cccnc1,"inconclusive [inhibitor, partial curve]",–
O=C(Nc1ccc(-n2cnnn2)cc1)C1CCCN1C(=O)NC1CCCCC1 (stereo unspecified),"inconclusive [inhibitor, full curve, poor fit]",–
CC(C)Oc1ccc(C(=O)OCC(=O)NC2CCCCCC2)cc1,"inconclusive [inhibitor, full curve, poor fit]",–
C/C(=N\Nc1nc2ccccc2s1)c1ccc(Br)s1,–,inactive: 7.98%
CSCCC(C(=O)O)N1C(=O)c2ccc(C(=O)O)cc2C1=O (stereo unspecified),"inconclusive [inhibitor, full curve]",–
COc1ccc(NC(=O)CSc2nnc3ccc(-c4ccncc4)nn23)cc1OC,"inconclusive [inhibitor, full curve, poor fit]",–
Cc1cc(SCCC(=O)O)nc2ccccc12,"inconclusive [inhibitor, partial curve, poor fit]",–
C=CCOC(=O)C1=C[C@@H](c2ccccc2)[C@H](CCCO)[C@@H](OCC)O1,–,inactive: 6.76%
CC(C)/C=C1\CC/C(=C\c2cccnc2)C1=O,"inconclusive [inhibitor, single point]",–
Cc1ccc(/C=N/N2CCN(Cc3ccccc3)CC2)s1,–,inactive: 5.53%
Cc1ccc2nc(SCC(=O)NCc3cccs3)[nH]c2c1,–,inactive: -5.21%
CCn1c(=NC(=O)CS(=O)(=O)c2ccc(C)cc2)sc2cccc(OC)c21,"inconclusive [inhibitor, full curve]",–
CC(=O)Nc1ccc(N/C=C/C(=O)c2ccc(C)o2)cc1,"inconclusive [inhibitor, full curve, poor fit]",–
O=C(COc1ccc(S(=O)(=O)N2CCCC2)cc1Cl)NCc1cccnc1,–,inactive: -1.81%
N=c1c[n+](N2CCOCC2)[n-]o1,–,inactive: -5.6%
CCOc1ccc(OCC(O)CNC2CCN(Cc3ccccc3)CC2)cc1 (stereo unspecified),–,inactive: -3.69%
CCCCS(=O)(=O)N1CCCC(C(=O)NCC2CCCO2)C1 (stereo unspecified),"inconclusive [inhibitor, full curve, poor fit]",–
COc1ccc(CCNC(=O)CCCn2ncn3c(cc4occc43)c2=O)c(OC)c1,"inconclusive [inhibitor, full curve, poor fit]",–
O=C(N/N=C/c1ccc(F)cc1)c1cccc(NC(=O)c2ccc(F)cc2)c1,–,inactive: 3.52%
O=C(c1ccc([N+](=O)[O-])o1)N1CCc2ccccc2C1,–,inactive: -1.72%
O=C1CC(N2CCC(c3nc4ccccc4s3)CC2)C(=O)N1Cc1ccccc1 (stereo unspecified),"inconclusive [inhibitor, full curve, poor fit]",–
